From the supplement of paper PMC3334620
Whole data set: some 33,000 sequences, median “E-score (-0.5 to 0.5)” near -0.054, cut for the highest 2% near 0.35. The list shows a part of the results.

These sequences were tested against T1, Stb5 (UniProt P38699) (assay: PBM E-score (8-mer binding enrichment) (E-score (-0.5 to 0.5)); higher = stronger / more preferred TF binding; most listed sequences are background and not binding sites). Details: protein concentration: 200 nM; construct: GST-full length.
T1 sequence: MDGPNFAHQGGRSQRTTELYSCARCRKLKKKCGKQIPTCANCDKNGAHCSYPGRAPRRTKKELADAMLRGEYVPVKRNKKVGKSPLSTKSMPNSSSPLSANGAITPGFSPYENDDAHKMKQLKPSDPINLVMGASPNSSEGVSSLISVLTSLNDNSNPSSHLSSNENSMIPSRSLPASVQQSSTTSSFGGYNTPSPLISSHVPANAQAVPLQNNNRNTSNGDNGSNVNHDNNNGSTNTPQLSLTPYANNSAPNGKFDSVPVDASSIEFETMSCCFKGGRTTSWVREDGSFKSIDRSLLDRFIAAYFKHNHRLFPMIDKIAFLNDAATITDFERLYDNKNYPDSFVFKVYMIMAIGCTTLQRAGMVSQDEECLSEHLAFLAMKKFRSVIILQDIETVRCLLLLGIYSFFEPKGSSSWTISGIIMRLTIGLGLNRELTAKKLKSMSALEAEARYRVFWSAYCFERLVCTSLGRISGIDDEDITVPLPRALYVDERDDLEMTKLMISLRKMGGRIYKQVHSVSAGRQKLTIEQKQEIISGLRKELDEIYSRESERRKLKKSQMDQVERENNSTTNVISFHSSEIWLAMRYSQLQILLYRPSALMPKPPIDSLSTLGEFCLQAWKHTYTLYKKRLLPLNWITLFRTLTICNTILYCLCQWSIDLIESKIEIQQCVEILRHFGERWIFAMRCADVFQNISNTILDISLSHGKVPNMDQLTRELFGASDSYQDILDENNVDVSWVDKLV
Outline: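 GST-tagged yeast TFs (full-length or DNA-binding domain) were made by PURExpress in vitro transcription/translation and applied at about 100-200 nM to universal all-10-mer Agilent arrays. The arrays were made double-stranded by primer extension, on fresh or once-stripped slides. Bound protein was detected with fluorescent anti-GST, and scans were normalised with masliner. Each ungapped eight-base word, pooled with its reverse complement, received an E-score (modified Wilcoxon-Mann-Whitney statistic) from the Universal PBM Analysis Suite.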

Going from AAGATAAA to AAGCGGTA, the “PBM E-score” value rises from 0.151 to 0.35.

Going from ACGCGAGG to CCTCTATC, the “PBM E-score” value falls from -0.141 to -0.283.

Going from GCGCGCGA to ACAGATGT, the “PBM E-score” value falls from 0.0685 to -0.177.

Compared with AGTCGACT, ACTTGGAG is higher in “PBM E-score” value: -0.416 for the first, -0.00682 for the second.

First: AGGTTTGC
Second: ACTATGGC
The “PBM E-score” value of the first is lower: -0.267 for the first, -0.106 for the second.

Compared with GGTGCGCA, ATACCCAC is lower in “PBM E-score” value: 0.184 for the first, 0.0548 for the second.

First: ATTCGACG
Second: AGTGTGGA
The “PBM E-score” value of the first is higher: -0.167 for the first, -0.271 for the second.

Going from TATTCAAA to GACGAAAC, the “PBM E-score” value rises from 0.0234 to 0.125.

Compared with ACATTCCC, GCACTGGC is lower in “PBM E-score” value: 0.0919 for the first, -0.0607 for the second.

Compared with AACGGTAG, ATGCTTAC is lower in “PBM E-score” value: 0.0823 for the first, -0.266 for the second.

First: GATCGTGC
Second: CTTCGAAG
The “PBM E-score” value of the first is higher: -0.0471 for the first, -0.221 for the second.

Compared with GAAAAGCA, CACCAGAC is higher in “PBM E-score” value: -0.133 for the first, 0.00933 for the second.

Going from CCGCCGCC to AATTGGAG, the “PBM E-score” value falls from 0.361 to -0.206.

Going from GCAAGCAA to CATGCGAC, the “PBM E-score” value rises from -0.122 to -0.121.

Compared with CAAATTTA, ACTCGTCC is lower in “PBM E-score” value: 0.00388 for the first, -0.168 for the second.

Compared with GAGCACAA, AAGGAAGT is higher in “PBM E-score” value: -0.136 for the first, -0.0449 for the second.

Going from ATCTTGTG to CCCCGGCC, the “PBM E-score” value rises from -0.099 to 0.222.

First: CATAACCG
Second: CGCCTCGA
The “PBM E-score” value of the first is lower: 0.0347 for the first, 0.0565 for the second.

First: ATCCTCAG
Second: AACAAAGC
The “PBM E-score” value of the first is lower: -0.0825 for the first, 0.0325 for the second.

First: AGTTTCAT
Second: ACGCAAAA
The “PBM E-score” value of the first is lower: -0.192 for the first, -0.126 for the second.

Going from CCCCTACA to GCAGCATA, the “PBM E-score” value rises from -0.136 to 0.0489.

First: TACATTCA
Second: CCACCGCA
The “PBM E-score” value of the first is lower: -0.297 for the first, 0.245 for the second.

First: GGTTTTAC
Second: CCTTCCGA
The “PBM E-score” value of the first is higher: 0.282 for the first, 0.0635 for the second.

First: CCCGCGCA
Second: TGACGACA
The “PBM E-score” value of the first is higher: 0.299 for the first, -0.095 for the second.

Compared with TACAGACA, TCTGTCAA is lower in “PBM E-score” value: -0.175 for the first, -0.224 for the second.

Compared with CTGTCTGA, ATGTCCGC is higher in “PBM E-score” value: -0.0918 for the first, 0.443 for the second.

Compared with ATGGTCCA, ATAAGGTG is higher in “PBM E-score” value: -0.192 for the first, 0.12 for the second.

First: GACATCGC
Second: TCGGACAA
The “PBM E-score” value of the first is lower: 0.117 for the first, 0.337 for the second.

Going from TTAGATAA to CGTGCATA, the “PBM E-score” value rises from -0.164 to -0.137.

Going from GAATTATC to CCCCATCC, the “PBM E-score” value falls from -0.0581 to -0.117.

Going from CACAAAAC to AATCACGA, the “PBM E-score” value falls from -0.0883 to -0.236.

Compared with CGGTTTCC, CAACAGTC is lower in “PBM E-score” value: 0.128 for the first, -0.0549 for the second.

Compared with CTCGTATC, AGGTACAT is lower in “PBM E-score” value: -0.132 for the first, -0.173 for the second.

Going from CCCTAGGA to AGTTGACA, the “PBM E-score” value rises from -0.183 to -0.174.

First: ACCGCATA
Second: CCGGCGTC
The “PBM E-score” value of the first is lower: 0.259 for the first, 0.305 for the second.

First: CTCGCGTC
Second: CAATATAC
The “PBM E-score” value of the first is lower: -0.154 for the first, 0.0438 for the second.

First: ACACCGAT
Second: ACAGACAC
The “PBM E-score” value of the first is higher: 0.447 for the first, -0.0411 for the second.

First: GCTCATCA
Second: CCTACATC
The “PBM E-score” value of the first is lower: -0.0295 for the first, 0.0352 for the second.

Going from GCCATCCC to ACTATTCT, the “PBM E-score” value rises from -0.162 to -0.0185.

First: CGTGCTTA
Second: AGTGCTAC
The “PBM E-score” value of the first is higher: 0.0311 for the first, -0.234 for the second.

Going from CAAGCTGC to CCAAGGAC, the “PBM E-score” value rises from -0.0381 to 0.0754.

Compared with CAATAACA, AGAATTGC is higher in “PBM E-score” value: -0.124 for the first, 0.0225 for the second.

Compared with TGAGCAAA, AGAACGCA is lower in “PBM E-score” value: -0.00076 for the first, -0.128 for the second.

First: TCGATCAA
Second: CCCATCCA
The “PBM E-score” value of the first is higher: -0.212 for the first, -0.358 for the second.

Going from CGATGCCG to CGAGCGGC, the “PBM E-score” value rises from 0.193 to 0.318.

Going from CAAAGCAA to ACTCAACC, the “PBM E-score” value falls from -0.115 to -0.136.

Compared with GCCGGCCA, ACCCCAAT is lower in “PBM E-score” value: 0.191 for the first, -0.215 for the second.

Going from GAGCTAAC to AGTCAGTC, the “PBM E-score” value falls from 0.00157 to -0.236.

Compared with AATTCCGG, CCGAAGAA is lower in “PBM E-score” value: 0.216 for the first, 0.118 for the second.

Compared with ACGAACCC, TATACTCA is lower in “PBM E-score” value: 0.131 for the first, -0.245 for the second.

First: GCTCCTCA
Second: ATAATTTC
The “PBM E-score” value of the first is lower: -0.0663 for the first, 0.044 for the second.

First: AGTCAGTA
Second: GTGAGACA
The “PBM E-score” value of the first is higher: -0.0496 for the first, -0.132 for the second.

Compared with ATCCTATC, GCCAAACC is lower in “PBM E-score” value: 0.155 for the first, 0.0718 for the second.

First: ATAGGAAA
Second: AGTCCTTC
The “PBM E-score” value of the first is higher: -0.115 for the first, -0.206 for the second.

Compared with GGTTAAGA, ACGCAGAG is lower in “PBM E-score” value: 0.122 for the first, -0.218 for the second.

First: CAGGCGAC
Second: AATGCTAA
The “PBM E-score” value of the first is lower: -0.148 for the first, -0.133 for the second.

Going from GGCGATTA to AGCAAAGG, the “PBM E-score” value falls from 0.12 to 0.00453.

Going from AGTGTGGG to CTTTTATC, the “PBM E-score” value rises from 0.0385 to 0.161.

Going from GAAACTCC to ATTTCGAA, the “PBM E-score” value falls from 0.24 to 0.0569.

Going from CTTGTCCC to GGTGAAAC, the “PBM E-score” value rises from 0.0601 to 0.186.

First: AGTAAGAC
Second: GTACGAGA
The “PBM E-score” value of the first is higher: -0.025 for the first, -0.0711 for the second.

First: TCAGATCA
Second: ACATGACC
The “PBM E-score” value of the first is higher: -0.15 for the first, -0.152 for the second.

Compared with AGTAACTC, GTCCCACA is lower in “PBM E-score” value: 0.106 for the first, 0.0294 for the second.

Compared with AACTTGAG, ATGTGCTA is higher in “PBM E-score” value: -0.19 for the first, 0.138 for the second.

Compared with CGACCATC, CATCCACA is lower in “PBM E-score” value: 0.00746 for the first, -0.14 for the second.

First: ACGCTAAG
Second: GGACAGGA
The “PBM E-score” value of the first is lower: -0.215 for the first, -0.0731 for the second.

Going from ATCACGAT to GTAGTACA, the “PBM E-score” value rises from -0.225 to -0.138.

First: GTGTGAAA
Second: ATCGAAGG
The “PBM E-score” value of the first is higher: 0.0202 for the first, -0.0624 for the second.

Compared with CCCACCGA, GGCAGATA is lower in “PBM E-score” value: 0.118 for the first, 0.0829 for the second.

First: GCCGTCGC
Second: CTATCTGA
The “PBM E-score” value of the first is higher: 0.281 for the first, -0.167 for the second.

First: CGATTTCC
Second: CAGGTCAC
The “PBM E-score” value of the first is higher: 0.0717 for the first, -0.205 for the second.

Compared with ACGCTTTA, TAATCTGA is higher in “PBM E-score” value: -0.303 for the first, -0.0492 for the second.

Compared with ATGGAGAC, ATTATATC is higher in “PBM E-score” value: -0.0229 for the first, 0.103 for the second.

Going from CATGCACC to CTCGAGTC, the “PBM E-score” value falls from 0.0407 to -0.021.

Going from GAGCCCAA to GGTATGAA, the “PBM E-score” value rises from -0.127 to 0.0355.

First: CTGCGTGA
Second: AAGATTGC
The “PBM E-score” value of the first is higher: -0.132 for the first, -0.246 for the second.

First: GGGTTGCA
Second: CGGTATTC
The “PBM E-score” value of the first is lower: -0.124 for the first, 0.275 for the second.

First: CCAGATAG
Second: AAAGTTAT
The “PBM E-score” value of the first is lower: -0.314 for the first, -0.0717 for the second.

First: CGAAATAC
Second: GTTGCGTA
The “PBM E-score” value of the first is higher: 0.104 for the first, -0.144 for the second.

Going from AAGCTATA to CAAGGGTC, the “PBM E-score” value falls from 0.0236 to 0.0197.

Compared with GGCTCTAA, AGCAAATA is lower in “PBM E-score” value: 0.191 for the first, -0.0577 for the second.

Going from CAGCCATG to CGTAACGC, the “PBM E-score” value rises from -0.303 to 0.0528.

First: GCAGCTCC
Second: CCCGCTTA
The “PBM E-score” value of the first is lower: -0.193 for the first, 0.229 for the second.

First: AGGTCAAG
Second: TACTAGAA
The “PBM E-score” value of the first is lower: -0.193 for the first, -0.0572 for the second.

Compared with GGTTAGAA, ATCTCGTA is lower in “PBM E-score” value: 0.0993 for the first, -0.0738 for the second.

Going from GCTAGCTA to CGAGGTGC, the “PBM E-score” value rises from -0.293 to -0.146.
